{"source": "PubChem BioAssay AID1671194", "about": "(National Center for Advancing Translational Sciences (NCATS), 2021)", "note": "The whole screen tested about 140,000 compounds, of which about 240 (0.17%) were called active. The shares of active, inactive and inconclusive entries below differ from those in the screen. The call rests on the fitted dose curve; in most records, active means well fitted inhibition curve with a large enough effect; inconclusive means small, poorly fitted or top-dose-only effect; inactive means no such curve, though single readings can be large or run the other way. Potencies beside an inconclusive call are fits to weak or partial responses and may not hold up. Potency means the concentration at half of the fitted maximal effect; tags describe the fitted curve by direction and shape.", "data": [{"assay": "Primary qHTS assay for inhibitors of alpha-synuclein gene (SNCA) expression; further: nearly all actives have a fitted effect of over 45% in size;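 on activity change, negative = inhibition: plate controls were DMSO cells for no effect and cell-free wells for full effect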", "conditions": "HEK-293 SNCA-luciferase knock-in, luminescence, 24 h; activity change, negative = inhibition: at 57.2 µM (top of the series) unless noted", "values": [{"smiles": "Cc1cc(C(=O)NCC2(COc3cnccn3)C[C@@H](O)[C@@H](O)C2)no1", "note": "(some centres not stated)", "Potency": "inconclusive: 3.16 µM [inhibitor, partial curve, poor fit]"}, {"smiles": "O=C(Nc1cccc(-c2ccc(N3CCOCC3)nn2)c1)Nc1cc(F)ccc1F", "Potency": "inconclusive: 39.8 µM [inhibitor, single point]"}, {"smiles": "Cc1noc(C)c1C(=O)N1CCC([C@H]2[C@@H](Oc3ccccc3)CN2C(C)C)CC1", "activity change, negative = inhibition": "inactive: 8.89%"}, {"smiles": "Cc1ccc(NC(=O)c2nc(S(=O)(=O)Cc3cccc(C)c3)ncc2Cl)cc1", "Potency": "inconclusive: 20 µM [inhibitor, single point]"}, {"smiles": "CCOC(=O)c1cnn(-c2cccc(F)c2)c1C1CCNCC1", "Potency": "inconclusive: 0.794 µM [inhibitor, full curve]"}, {"smiles": "COc1cc(C(=O)Nc2ccc(-c3cc(C(F)(F)F)nn3-c3ccccc3)cc2)cc(OC)c1OC", "Potency": "inconclusive: 14.1 µM [inhibitor, partial curve, poor fit]"}, {"smiles": "CCc1ccccc1NC(=O)c1cnn2c(C(F)(F)F)cc(-c3ccc(OC)c(OC)c3)nc12", "Potency": "inconclusive: 0.178 µM [inhibitor, single point]"}, {"smiles": "COc1ccc(-n2c(=O)c3c(n2Cc2ccccc2)CN(C(C)=O)CC3)cc1", "activity change, negative = inhibition": "inactive: -0.125% [at 87.6 µM]"}, {"smiles": "COc1ccc(-c2nc(C)nc3c2CN(C(=O)c2ccccc2OC)CC3)cc1", "Potency": "inconclusive: 2.51 µM [inhibitor, partial curve, poor fit]"}, {"smiles": "CC(C)CNc1ccc2c(n1)C(C)(C(=O)NC1CCC(O)CC1)CN(Cc1ccccc1)C2", "note": "(configuration not stated)", "Potency": "inconclusive: 25.1 µM [inhibitor, single point]"}, {"smiles": "Cc1noc(C)c1-c1cn(C)c(=O)n2cc(COc3ccc(Cl)cc3)nc12", "Potency": "inconclusive: 12.6 µM [inhibitor, partial curve, poor fit]"}, {"smiles": "COc1ccc(OC)c(S(=O)(=O)Nc2nc3c(s2)C[C@]2(C)CC[C@@H]4[C@H](OC(=O)[C@H]4C)[C@H]2[C@@H]3C)c1", "activity change, negative = inhibition": "inactive: 5.31%"}, {"smiles": "COc1cccc(NS(=O)(=O)c2ccc3[nH]cc(C(=O)NC4CCCCC4)c(=O)c3c2)c1", "Potency": "inconclusive: 17.8 µM [inhibitor, partial curve, poor fit]"}, {"smiles": "CCc1noc(-c2cccn3c(CNC(=O)Cc4cccc(OC)c4)nnc23)n1", "activity change, negative = inhibition": "inactive: 13.6%"}, {"smiles": "CCc1noc(-c2cn(C3CCN(C(=O)c4cccc(OC)c4)C3)nn2)n1", "note": "(configuration not stated)", "Potency": "inconclusive: 6.31 µM [inhibitor, single point]"}, {"smiles": "COc1ccccc1Nc1ccnc(N2CCN(C(=O)Cc3cccc(Cl)c3)CC2)n1", "Potency": "inconclusive: 22.4 µM [inhibitor, single point]"}, {"smiles": "COc1ccc(CC(=O)N[C@H]2[C@H](O)[C@H](O)C[C@@H]2c2ccccc2)cc1", "Potency": "inconclusive: 11.2 µM [inhibitor, partial curve]"}, {"smiles": "CCCOCCNC(=O)c1c(C)noc1-c1ccc(OC)cc1", "activity change, negative = inhibition": "inactive: -10.9%"}, {"smiles": "O=C1N[C@@H]2CCN(C(=O)COc3ccccc3)[C@@H]2C(=O)N1c1ccc(Oc2ccccc2)cc1", "activity change, negative = inhibition": "inactive: -9.63%"}, {"smiles": "CSCC(=O)N1CCC(C2CCN(S(C)(=O)=O)CC2)C1", "note": "(configuration not stated)", "Potency": "inconclusive: 25.1 µM [inhibitor, partial curve, poor fit]"}, {"smiles": "CN(CCc1noc(C2CN(Cc3cc(Cl)ccc3F)C2)n1)S(C)(=O)=O", "Potency": "inconclusive: 17.8 µM [inhibitor, partial curve, poor fit]"}, {"smiles": "COc1ccc(CCC(=O)N2CCC(Cc3nc(-c4ccc(OC)cc4)no3)CC2)cc1", "Potency": "inconclusive: 3.16 µM [inhibitor, partial curve, poor fit]"}, {"smiles": "COc1cccc(CNC(=O)Cn2c(=O)oc3cc(S(=O)(=O)N4CCC(C)CC4)ccc32)c1", "Potency": "inconclusive: 39.8 µM [inhibitor, partial curve, poor fit]"}, {"smiles": "Cc1noc(C)c1C(=O)NC1CCCc2c1[nH]c1c(Cl)cccc21", "note": "(configuration not stated)", "Potency": "inconclusive: 2.51 µM [inhibitor, partial curve, poor fit]"}, {"smiles": "C[S+](=O)([O-])c1cccc(-c2nnc3ccc(C(=O)NCC(F)F)cn23)c1", "activity change, negative = inhibition": "inactive: 11.4%"}, {"smiles": "Cc1noc(C)c1[S+](=O)([O-])N1CCC(c2nnc3n2C(C(=O)O)CC3)CC1", "note": "(configuration not stated)", "Potency": "inconclusive: 10 µM [inhibitor, single point]"}, {"smiles": "COc1ccc(CN2CCC3(C2)C(=NC2CCCCC2)NC(=O)N3c2cc(F)cc(F)c2)cc1", "note": "(configuration not stated)", "Potency": "inconclusive: 14.1 µM [inhibitor, partial curve, poor fit]"}, {"smiles": "COc1ccccc1N1CCN(C[C@@H]2C=C(C)[C@H](Cc3nnc(-c4cncn4C)o3)C[C@H]2C(C)C)CC1", "Potency": "inconclusive: 15.8 µM [inhibitor, partial curve, poor fit]"}, {"smiles": "COc1ccc(-c2cc(C(=O)NCC3CC3)c3cnn(C)c3n2)cc1", "activity change, negative = inhibition": "inactive: 4.95% [at 87.6 µM]"}, {"smiles": "CCN(c1ccc(C)cc1C)S(=O)(=O)c1nnc(NC(=O)CC(C)C)s1", "Potency": "inconclusive: 7.94 µM [inhibitor, single point]"}, {"smiles": "Cc1ccc(Nc2ccnc(N3CCCC(C(=O)N4CCN(Cc5ccccc5)CC4)C3)n2)cc1", "note": "(configuration not stated)", "Potency": "inconclusive: 35.5 µM [inhibitor, single point]"}, {"smiles": "CCOc1ccc(NC(=O)Cn2cc(C(=O)c3ccc(C)c(C)c3)c(=O)c3cc(F)ccc32)cc1", "Potency": "inconclusive: 0.316 µM [inhibitor, single point]"}, {"smiles": "COc1ccc(OC)c(CNC(=O)[C@H]2CCC[C@H]2NC(=O)c2cnc(C)cn2)c1", "Potency": "inconclusive: 3.16 µM [inhibitor, full curve]"}, {"smiles": "O=C(CCn1cnc2onc(-c3ccc(F)cc3)c2c1=O)N1CCN(c2cccc(Cl)c2)CC1", "Potency": "inconclusive: 0.447 µM [inhibitor, partial curve, poor fit]"}, {"smiles": "O=C(Nc1ccccc1C(F)(F)F)N1CCN(c2ccc3nnc(-c4ccc(F)cc4)n3n2)CC1", "Potency": "inconclusive: 3.16 µM [inhibitor, partial curve, poor fit]"}, {"smiles": "O=C1N(Cc2ccccc2)CCOC12CCN(Cc1cccc(F)c1)CC2", "activity change, negative = inhibition": "inactive: -28% [at 87.6 µM]"}, {"smiles": "CCOc1ccc(OCC)c(NC(=O)C2CCN(c3cnccn3)CC2)c1", "Potency": "inconclusive: 10 µM [inhibitor, partial curve]"}, {"smiles": "CNC(=O)N1CCC(C2CCN(C(=O)CCCc3ccccc3)C2)CC1", "note": "(configuration not stated)", "activity change, negative = inhibition": "inactive: 119%"}, {"smiles": "N#Cc1cccc(NC(=O)c2ccc3c(c2)N(Cc2cccc(Cl)c2)C(=O)c2ccccc2S3(=O)=O)c1", "Potency": "inconclusive: 3.98 µM [inhibitor, full curve, poor fit]"}, {"smiles": "CCCCCn1c(=N)n(CC(O)COc2cccc(C)c2)c2ccccc21", "note": "(configuration not stated)", "Potency": "inconclusive: 25.1 µM [inhibitor, single point]"}, {"smiles": "COCCCNC(=O)N1CCCCCCNC(=O)[C@@H]2C[C@@H](c3nc(-c4cccnc4)no3)C[C@@H]21", "activity change, negative = inhibition": "inactive: 5.72%"}, {"smiles": "O=C(Cc1ccc(Br)cc1)NCc1nnc2ccc(-c3ccc(F)cc3)nn12", "Potency": "inconclusive: 11.2 µM [inhibitor, partial curve]"}, {"smiles": "O=C(NCc1ccccc1F)C1CCN(C(=O)c2ncn3c2COC(c2ccc(F)cc2)C3)CC1", "note": "(configuration not stated)", "activity change, negative = inhibition": "inactive: 3.9%"}, {"smiles": "COCCN1CCCC1c1nc(C2CN(C(=O)NCc3ccco3)C2)no1", "note": "(configuration not stated)", "Potency": "inconclusive: 39.8 µM [inhibitor, single point]"}, {"smiles": "Cc1ccc(C2Cn3nnc(C(=O)N4CCC(C(=O)NCc5ccccn5)CC4)c3CO2)cc1", "note": "(configuration not stated)", "activity change, negative = inhibition": "inactive: 4.71%"}, {"smiles": "O=C(Nc1cc(-c2ccccn2)nn1-c1ccccc1)c1ccc(Cl)cc1", "activity change, negative = inhibition": "inactive: 8.32%"}, {"smiles": "COCc1nc(C2CCN(C(=O)c3ccncc3)C2)no1", "note": "(configuration not stated)", "Potency": "inconclusive: 2.82 µM [inhibitor, partial curve, poor fit]"}, {"smiles": "O=C(O)c1ccccc1Nc1cccc(C(F)(F)F)c1", "activity change, negative = inhibition": "inactive: -11.5% [at 25.6 µM]"}, {"smiles": "O=C(O)CCC(=O)N1Cc2[nH]cnc2C[C@H]1c1nc(-c2ccc(Cl)cc2)no1", "Potency": "inconclusive: 20 µM [inhibitor, partial curve, poor fit]"}, {"smiles": "CN(C)c1ccc(C(=C2C=CC(=[N+](C)C)C=C2)c2ccccc2)cc1", "Potency": "inconclusive: 22.4 µM [inhibitor, partial curve, poor fit]"}, {"smiles": "COCCNC(=O)c1c(C)oc2c1CN(Cc1cccc(F)c1)CC2", "Potency": "inconclusive: 2.24 µM [inhibitor, full curve]"}, {"smiles": "COc1ccccc1Nc1ncc2c(n1)CN(C(=O)c1ccc(Oc3ccccc3)cc1)CCN2", "Potency": "inconclusive: 20 µM [inhibitor, single point]"}, {"smiles": "NC(=O)c1cccc(-c2ccc3c(n2)CN(Cc2ccc(F)cc2)C(=O)CO3)c1", "Potency": "inconclusive: 56.2 µM [inhibitor, partial curve, poor fit]"}, {"smiles": "CC(C)COc1ccccc1C1CC(=O)Nc2cc3c(cc21)OCO3", "note": "(configuration not stated)", "Potency": "inconclusive: 17.8 µM [inhibitor, single point]"}, {"smiles": "CC(=O)Nc1ccc([C@@H](O)[C@H]2COCC(=O)N2CC(C)C)cc1", "activity change, negative = inhibition": "inactive: -15.9% [at 87.6 µM]"}, {"smiles": "Clc1ccccc1Cc1cn2cc(-c3ccccc3)nc2s1", "Potency": "inconclusive: 2.24 µM [inhibitor, full curve, poor fit]"}, {"smiles": "O=C(c1ccc2c(c1)N(C(=O)c1ccccc1)CC2)N1CCN(c2cccc(Cl)c2)CC1", "Potency": "inconclusive: 14.1 µM [inhibitor, partial curve, poor fit]"}, {"smiles": "Cc1cc(C)cc(NC(=O)C2(c3cccs3)CCOCC2)c1", "Potency": "inconclusive: 17.8 µM [inhibitor, single point]"}, {"smiles": "COc1cccc(-c2nn(-c3ccccc3)c(OC(C)=O)c2-c2ccc(NC(=O)C3CCCC3)cc2)c1", "activity change, negative = inhibition": "inactive: -4.01%"}, {"smiles": "Cc1ccc(-c2nc3cccnc3s2)cc1NC(=O)Cc1ccccc1", "activity change, negative = inhibition": "inactive: 48.1%"}, {"smiles": "Cn1nc(C(=O)N2CCn3nc(Cc4ccccc4)cc3C2)ccc1=O", "activity change, negative = inhibition": "inactive: -9.01%"}, {"smiles": "CC(C)c1noc(-c2cn(C3CCN(C(=O)c4cccc(C#N)c4)CC3)nn2)n1", "Potency": "inconclusive: 8.91 µM [inhibitor, single point]"}]}]}
